The data set deals with ATP. Kind of data set: switch fluorescence ratio, 500 uM ATP over buffer (Cy3 cluster intensity, sum of 5 cycles each) (fold (ratio)); higher = stronger signal-on switching upon ATP binding; sequences stand for … in TCGTCGGCAGCGTCAGATGTGTATAAGAGACAGTTTTTTTTTTTTTTTTTTTTTTTTT…TC. As to conditions: aptamer strand: ATP DNA aptamer (quencher-CACCTGGGGGAGTATTGCGGAGGAAGG + anchor), 100 nM annealed; ATP concentration: 500 uM; one replicate. The essentials: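 Cy3-labelled switching-strand clusters on a modified Illumina MiSeq flow-cell were annealed to 100 nM quencher-labelled ATP aptamer, imaged in selection buffer, then imaged after 15 min with 500 uM ATP at 22 °C. Five buffer/ATP cycles ran, with NaOH stripping and re-annealing between them. The fluorescence ratio is summed target-cycle over summed buffer-cycle Cy3 intensity per cluster, averaged per switch-domain sequence. Clusters outside 100-1000 RFU were excluded.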

Values marked as one replicate rest on one cluster of the flow cell; about a third of the high ones do not repeat.

Results on 67 sequences are retold here after the supplement of paper PMC10126150.
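Also: ATP exposure 15 min at 22 °C before imaging.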

As for TACGGTACAA, the switch fluorescence ratio amounted to 1.4.
Then CAAGCCTCAT, with 1; and GGGTTAAAA, with 1.02.
Consider CTTTTCCGAG, for which the switch fluorescence ratio worked out at 1.19.
In the case of ATGGCAAGTT, the switch fluorescence ratio was 1.03.
As for TGTGTTGACT, the switch fluorescence ratio came out at 0.974.
Turning to GGCTAGTAAG, the switch fluorescence ratio was found to be 1.01.
With GGGGATCGC the figure was 1.02; with TATTAGTGAG, 0.993; with GCAGTGTGAG, 0.94.
As for TATGCGTAGG, the switch fluorescence ratio turned out to be 1.
For GACATTCGAG, the switch fluorescence ratio was found to be 1.
Then CCTAGTGAGC, with 1.05; and ATCGTCGAGT, with 0.967; and CCGACAGAAT, with 4.67.
With GAAATGCTGT the figure was 1.03; with CTTTTGGCAA, 1.29.
CGGGAAGGGA: the switch fluorescence ratio was found to be 0.974.
Consider GTACTAGGTC, for which the switch fluorescence ratio came to 1.02.
With GACCTCTCTG the figure was 1.04.
Then TCAACTTATT, with 0.991.
Then AAAAGAATTA, with 1.03.
With AAACTCCAAG, the switch fluorescence ratio was 1.01.
Take CATCGGGGCA: the switch fluorescence ratio was 1.01.
For the sequence CTTTATTTTT, the switch fluorescence ratio came to 1.04.
For the sequence CGTGCCTGAA, the switch fluorescence ratio came to 0.962.
As for GATGCAATTG, the switch fluorescence ratio is 1.38.
For the sequence GGAGGCAGAG, the switch fluorescence ratio came to 0.97.
For TCTAAGAAAT, the switch fluorescence ratio amounted to 0.97.
With GATCCGGGAT the figure was 0.985; with TATGCTACGA, 1.04; with CTAAGTCGGT, 0.989.
Then GCCTAGGGTG, with 1.56.
With CCAGGTGGAA the figure was 1.28; with ACAGGCCCGA, 1.01.
Turning to GCTCCATTTC, the switch fluorescence ratio stood at 1.07.
Then TTACTTGGTA, with 1.01.
With AAGGGGCATC the figure was 0.979; with GGAGGGGCGC, 1.05.
With TTACCCCGGA the figure was 1.05.
For GTTTGCGCTG, the switch fluorescence ratio amounted to 1.02.
Then TTAGATGGTA, with 0.977.
CGTATCATGT: the switch fluorescence ratio worked out at 1.
Then CTATTTTG, with 1.04.
In the case of ACAGCAGTG, the switch fluorescence ratio was 1.
Then TCCTGCGGTT, with 1.24.
On to GGACCCCAGC, for which the switch fluorescence ratio was determined as 1.21.
With AAATAGTTTA the figure was 1.01; with ATTTGGCGGG, 0.979; with GCTATTTTGG, 0.969.
With AAGAAGCGGC the figure was 1.04.
With GCCAGGGGG the figure was 1.08; with GCCTTGTACT, 1.
In the case of TAGGTCTATC, the switch fluorescence ratio was 0.963.
With TGCTCCGGGC the figure was 1.3; with ACTAGCATGT, 1.
GCAATTATGA: the switch fluorescence ratio amounted to 1.11.
For CTGAAAGGTG, the switch fluorescence ratio came out at 1.1.
Then GCGGGTATGC, with 1.
In the case of GGTGTACTTG, the switch fluorescence ratio was 1.01.
With TTAGCACGGC the figure was 1.05; with GTCTTGCCTT, 1.
With CATTCTATAC the figure was 1.43; with CAAATGGCAT, 0.983; with CTTGTGGCAG, 1.06.
With ACTCCTTCCT the figure was 3.17; with TGAGCTCTTC, 0.989.
